# Test system: obese type 2 diabetic patients younger than 50 and not adequately controlled with metformin
# Test: Example 2: treatment emergent adverse events (TEAEs)
smiles,measurement,setting,value
N[C@@H](CC(=O)N1CCn2c(nnc2C(F)(F)F)C1)Cc1cc(F)c(F)cc1F [sitagliptin],% of patients with TEAE: Gastroenteritis viral,Safety population,1.9%
same,% of patients with TEAE: HLGT: Anaemias nonhaemolytic and marrow depression,Safety population,1.2%
same,% of patients with TEAE: HLGT: Bacterial infectious disorders,Safety population,1.2%
same,% of patients with TEAE: HLGT: Musculoskeletal and connective tissue disorders NEC,Safety population,4.3%
same,% of patients with TEAE: HLT: Anaemias NEC,Safety population,1.2%
same,% of patients with TEAE: HLT: Bacterial infections NEC,Safety population,1.2%
same,% of patients with TEAE: HLT: Headaches NEC,Safety population,9.3%
same,% of patients with TEAE: HLT: Hyperglycaemic conditions NEC,Safety population,1.2%
same,% of patients with TEAE: HLT: Hypoglycaemic conditions NEC,Safety population,3.1%
same,% of patients with TEAE: HLT: Infections NEC,Safety population,2.5%
same,% of patients with TEAE: HLT: Influenza viral infections,Safety population,3.1%
same,% of patients with TEAE: HLT: Musculoskeletal and connective tissue pain and discomfort,Safety population,4.3%
same,% of patients with TEAE: INFECTIONS AND INFESTATIONS,Safety population,31.7%
same,"% of patients with TEAE: INJURY, POISONING AND PROCEDURAL COMPLICATIONS",Safety population,5.6%
same,% of patients with TEAE: INVESTIGATIONS,Safety population,5.6%
same,% of patients with TEAE: Influenza,Safety population,3.1%
same,% of patients with TEAE: MUSCULOSKELETAL AND CONNECTIVE TISSUE DISORDERS,Safety population,6.8%
same,Number of patients with TEAE: Gastroenteritis viral,Safety population,3
same,Number of patients with TEAE: HLGT: Anaemias nonhaemolytic and marrow depression,Safety population,2
same,Number of patients with TEAE: HLGT: Bacterial infectious disorders,Safety population,2
same,Number of patients with TEAE: HLGT: Musculoskeletal and connective tissue disorders NEC,Safety population,7
same,Number of patients with TEAE: HLT: Anaemias NEC,Safety population,2
same,Number of patients with TEAE: HLT: Bacterial infections NEC,Safety population,2
same,Number of patients with TEAE: HLT: Infections NEC,Safety population,4
same,Number of patients with TEAE: HLT: Influenza viral infections,Safety population,5
same,Number of patients with TEAE: HLT: Injection site reactions,Safety population,2
same,Number of patients with TEAE: HLT: Joint related signs and symptoms,Safety population,3
same,Number of patients with TEAE: HLT: Limb injuries NEC (incl traumatic amputation),Safety population,4
same,Number of patients with TEAE: HLT: Musculoskeletal and connective tissue pain and discomfort,Safety population,7
same,"Number of patients with TEAE: INJURY, POISONING AND PROCEDURAL COMPLICATIONS",Safety population,9
same,Number of patients with TEAE: INVESTIGATIONS,Safety population,9
same,Number of patients with TEAE: Influenza,Safety population,5
same,Number of patients with TEAE: Influenza like illness,Safety population,0
same,Number of patients with TEAE: Injection site erythema,Safety population,0
same,Number of patients with TEAE: Injection site haematoma,Safety population,2
same,Number of patients with TEAE: MUSCULOSKELETAL AND CONNECTIVE TISSUE DISORDERS,Safety population,11
same,Number of patients with TEAE: Musculoskeletal chest pain,Safety population,0
same,Patients with any TEAE leading to death,"Safety population, on-treatment period",0 n (%)
same,deaths reported in the study,whole study,No death

# Reference: patent US8735349B2, “Method for improving glucose tolerance in a diabetes type 2 patient of younger than 50 years and having postprandial plasma glucose concentration of at least 14 mmol/L” (priority 2011, dated 2014)
